Laboratory results as given in PubChem BioAssay AID1460 (National Center for Advancing Translational Sciences (NCATS), 2008).
In all, about 270,000 compounds went through this assay and about 5,800 (2.1%) were called active. Inconclusive means that the source gave no clear call. Such entries were picked first, then a sample of the others. The call rests on the fitted dose curve; in most records, active means well fitted inhibition curve with a large enough effect; inconclusive means small, poorly fitted or top-dose-only effect; inactive means flat fitted curve, though single readings scatter. Potencies of inconclusive entries are doubtful fits and often do not repeat.

target: Microtubule-associated protein tau (Homo sapiens) (UniProt P10636); assay: qHTS for Inhibitors of Tau Fibril Formation, Thioflavin T Binding; details: recombinant tau K18 P301L (four-repeat tau fragment), heparin-induced fibrillization, ThT fluorescence; series mostly up to 57.4 µM; activity, negative = inhibition: at the top concentration; further: nearly all actives have a fitted effect of over 55% in size
Sequence of UniProt P10636 (P10636 whole entry, looked up, the tested form may be a part): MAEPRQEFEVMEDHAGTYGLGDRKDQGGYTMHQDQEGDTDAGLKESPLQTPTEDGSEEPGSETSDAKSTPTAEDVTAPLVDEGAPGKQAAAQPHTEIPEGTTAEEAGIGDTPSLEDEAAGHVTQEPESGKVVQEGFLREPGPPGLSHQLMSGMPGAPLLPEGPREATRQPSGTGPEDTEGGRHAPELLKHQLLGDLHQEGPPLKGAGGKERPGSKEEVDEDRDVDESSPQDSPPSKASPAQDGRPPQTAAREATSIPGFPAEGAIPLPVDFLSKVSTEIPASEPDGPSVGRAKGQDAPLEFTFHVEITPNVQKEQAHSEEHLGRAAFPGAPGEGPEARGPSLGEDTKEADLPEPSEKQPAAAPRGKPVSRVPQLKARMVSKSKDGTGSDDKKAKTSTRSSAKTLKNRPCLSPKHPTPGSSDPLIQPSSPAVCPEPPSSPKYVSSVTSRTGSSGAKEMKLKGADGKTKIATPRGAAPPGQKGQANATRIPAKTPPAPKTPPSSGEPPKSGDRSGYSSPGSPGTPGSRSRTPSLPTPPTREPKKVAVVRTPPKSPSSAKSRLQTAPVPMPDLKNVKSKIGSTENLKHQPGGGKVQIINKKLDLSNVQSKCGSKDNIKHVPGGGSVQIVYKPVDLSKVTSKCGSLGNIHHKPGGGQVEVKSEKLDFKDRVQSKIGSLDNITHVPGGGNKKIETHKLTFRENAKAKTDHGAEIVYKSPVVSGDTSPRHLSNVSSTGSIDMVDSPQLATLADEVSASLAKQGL
In short: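 In this qHTS, human K18 P301L tau is incubated with compound and heparin for 6 hr at 37 C, and Thioflavin T fluorescence then reports fibril load.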
On the % scale 0 is the no-effect control and ±100 the full control effect; potency means the concentration at half of the fitted maximal effect; tags describe the fitted curve by direction and shape.

Row | SMILES | activity, negative = inhibition | Potency
1 | C=C(C)[C@]12C[C@@H](C)[C@@]34OC(Cc5ccccc5)(O[C@@H]1[C@@H]3C=C(COC(=O)Cc1cc(OC)c(O)cc1I)C[C@]1(O)C(=O)C(C)=C[C@@H]41)O2 | inactive: -4.15% | –
2 | N#CC1=C(N)SC(N)=C(C#N)C1c1ccc(C(F)(F)F)cc1 | inactive: -13.6% | –
3 | CC(C)(C)C1CCc2onc(C(=O)Nc3sc4c(c3C#N)CCCC4)c2C1 (stereo not drawn) | – | active: 31.6 µM
4 | Cc1cccc(-n2c(-c3ccoc3C)n[nH]c2=S)c1 | inactive: 6.04% | –
5 | Cc1cccc(N2CCN(Cc3cc(=O)oc4cc(C)ccc34)CC2C)c1 (stereo not drawn) | – | inconclusive: 15.8 µM [inhibitor, partial curve]
6 | CC(=O)Nc1ccc(NC(=O)Cn2nc([N+](=O)[O-])c(Br)c2C)cc1 | – | inconclusive: 39.8 µM [inhibitor, single point]
7 | O=C(COC(=O)c1ccc(F)cc1F)Nc1ncccn1 | – | inconclusive: 20 µM [inhibitor, partial curve, poor fit]
8 | CCOC(=O)COc1ccc(C)cc1C(=O)c1ccn2nc(-c3ccc(Cl)cc3)cc2n1 | – | inconclusive: 4.47 µM [inhibitor, full curve, poor fit]
9 | CCc1ccc(NC(=O)CSc2nc(O)cc(=O)n2C2CCCC2)cc1 | – | inconclusive: 28.2 µM [inhibitor, single point]
10 | O=C(O)c1ccc(/C=N/NC(=O)c2cc(-c3ccc4c5c(cccc35)CC4)n[nH]2)cc1 | – | inconclusive: 39.8 µM [activator, single point]
11 | COc1cc(/C=N/NC(=O)CCn2c3ccccc3c3ccccc32)ccc1O | – | inconclusive: 14.1 µM [inhibitor, partial curve]
12 | CCN1C(=O)/C(=C/N2CCc3ccccc3C2)SC1=S | – | inconclusive: 3.98 µM [inhibitor, full curve]
13 | CCOC(=O)C(=Cc1ccccc1OC)C(=O)OCC | – | inconclusive: 12.6 µM [inhibitor, partial curve]
14 | Nc1cc(N)cc(-c2nc3ccccc3[nH]2)c1 | – | active: 12.6 µM
15 | CC1CC(=O)NN=C1c1ccc(N)c([N+](=O)[O-])c1 (stereo not drawn) | – | inconclusive: 25.1 µM [inhibitor, single point]
16 | Nc1c(N=Nc2cccc(Cl)c2)c(=O)[nH]n1-c1ccccc1 | – | inconclusive: 1 µM [inhibitor, full curve]
17 | CC[N+]1=C(C)C(C)(C)c2cc(C)ccc21 | – | active: 3.55 µM
18 | COc1ccc(/C(C)=N/Nc2nc3ccccc3nc2C)cc1OC | – | active: 12.6 µM
19 | COC(=O)C1=C(C)N(CCc2ccccc2)C(=O)/C1=C\c1ccco1 | – | active: 17.8 µM
20 | COc1ccc(C2=NCC(CSc3nccc(=O)[nH]3)S2)cc1 (stereo not drawn) | – | inconclusive: 35.5 µM [inhibitor, partial curve]
21 | Oc1ccc(/C=N/N(Cc2ccccc2)c2ccccc2)cc1 | – | inconclusive: 25.1 µM [inhibitor, single point]
22 | COc1cc(C2Nc3ccccc3NC3=C2C(=O)CC(c2ccc(OC)c(OC)c2)C3)ccc1O (stereo not drawn) | – | inconclusive: 39.8 µM [inhibitor, single point]
23 | O=C(O)CCCCCn1c(O)c(C=C2N=c3ccccc3=N2)sc1=S | – | active: 12.6 µM

Row | SMILES | activity, negative = inhibition | Potency
24 | C=CCNc1nc(-c2ccc(Cl)cc2)cs1 | – | inconclusive: 15.8 µM [inhibitor, partial curve]
25 | COc1cccc(-c2nnc(NC(=O)c3ccc4ncsc4c3)o2)c1 | – | inconclusive: 10 µM [inhibitor, partial curve]
26 | Cc1cc(N/N=C2\CC(C)CC(C)(C)C2)nc2ccccc12 (stereo not drawn) | – | inconclusive: 25.1 µM [inhibitor, partial curve]
27 | CC(=O)c1cccc(NC(=O)CN2C(=O)CC(c3ccc(C)cc3C)=Nc3ccccc32)c1 | inactive: -6.06% | –
28 | Cc1cccc(OCCCC(=O)Nc2ccc(N3CCOCC3)cc2)c1 | – | inconclusive: 15.8 µM [inhibitor, partial curve]
29 | O=C(O/N=C\c1ccc(N2CCOCC2)c([N+](=O)[O-])c1)c1ccccc1Cl | – | active: 12.6 µM
30 | COC(=O)c1cc(N=Nc2c(C)[nH]c3ccccc23)cc(C(=O)OC)c1 | – | inconclusive: 0.141 µM [inhibitor, full curve, poor fit]
31 | COc1ccccc1-c1cc(C(=O)Nc2cc(C)on2)no1 | – | inconclusive: 3.55 µM [inhibitor, partial curve, poor fit]
32 | COc1ccc(-c2nsc3c(N4CCN(C(=O)c5ccco5)CC4)ncnc23)cc1 | – | inconclusive: 1.58 µM [inhibitor, full curve]
33 | CCCOc1ccc(CC(=O)NNC(=S)Nc2ccccc2)cc1Br | – | inconclusive: 31.6 µM [inhibitor, single point]
34 | CCOC(=O)c1c(C)oc2c1c1c(c3ccccc32)OCN(Cc2ccccn2)C1 | – | inconclusive: 25.1 µM [inhibitor, partial curve]
35 | CN(C)c1ccc(SC#N)cc1 | – | active: 10 µM
36 | COc1ccc(-c2noc(CC(=O)Nc3cc(OC)ccc3OC)n2)cc1 | – | inconclusive: 12.6 µM [inhibitor, partial curve, poor fit]
37 | COC(=O)c1c(NC(=O)CSc2nnc(-c3ccco3)n2Cc2ccccc2)sc(C)c1C | – | inconclusive: 31.6 µM [inhibitor, single point]
38 | C=C(C)C1Cc2c(C)nn(-c3cccc4ccccc34)c2C1 (stereo not drawn) | – | inconclusive: 8.91 µM [inhibitor, full curve]
39 | O=C(CSc1ccc(-c2ccco2)nn1)N1CCCCC1 | – | inconclusive: 25.1 µM [inhibitor, partial curve, poor fit]
40 | COc1ccc(NC(=O)CC2C(=O)N(c3cccc(OC)c3)C(=O)N2CCC2=CCCCC2)cc1 (stereo not drawn) | inactive: 8.82% | –
41 | CCC(C)(C)C1CCc2c(sc(N)c2C(N)=O)C1 (stereo not drawn) | – | inconclusive: 39.8 µM [inhibitor, single point]
42 | Cc1nc(-c2ccc(C(=O)Nc3ccccc3F)cc2)cs1 | inactive: -14.1% | –
43 | O=C(Nc1ccc(F)cc1)/C(Cl)=C/c1ccccc1 | – | inconclusive: 7.94 µM [inhibitor, full curve, poor fit]
44 | CCCO/N=C1/C(=O)N(c2ccccc2)c2ccccc21 | – | inconclusive: 35.5 µM [inhibitor, single point]
45 | CCC(=O)N1CCN(c2nc3ccccc3s2)CC1 | – | inconclusive: 20 µM [inhibitor, partial curve]
46 | Cc1ccc(NC(=S)/C(=C(\[O-])c2ccc(C)c([N+](=O)[O-])c2)[n+]2ccccc2)cc1C | – | inconclusive: 25.1 µM [inhibitor, partial curve]

Row | SMILES | activity, negative = inhibition | Potency
47 | COc1ccc(CCNC(=O)c2cc3c(=O)n(C)c4ccccc4c3s2)cc1OC | – | inconclusive: 4.47 µM [inhibitor, partial curve]
48 | O=C(O)/C=C\C(=O)Nc1cccc(C(=O)Nc2cccc(O)c2)c1 | inactive: -6.88% | –
49 | COc1ccc(/C=C/c2cc(C(F)(F)F)[nH]c(=O)n2)cc1OC | inactive: 10.9% | –
50 | O=C(Cn1cc(C(=O)c2ccccc2)c(=O)c2cc3c(cc21)OCCO3)Nc1ccc(F)c(F)c1 | inactive: -1.26% | –
51 | COc1ccc(C(=O)Nc2ccc(Cc3ccncc3)cc2)cc1Br | – | inconclusive: 39.8 µM [activator, single point]
52 | Cc1c(N2C(=O)/C(=C\C3CC=CCC3)SC2=S)c(=O)n(-c2ccccc2)n1C (stereo not drawn) | – | inconclusive: 31.6 µM [inhibitor, partial curve]
53 | COc1ccc(CCNCc2c(C(=O)O)c(C)n(Cc3cccc(Cl)c3)c2C)c(OC)c1OC | inactive: -5.46% | –
54 | Cc1ccc(Nc2nc(=O)c3cc([N+](=O)[O-])ccc3s2)cc1 | – | inconclusive: 20 µM [inhibitor, partial curve, poor fit]
55 | C/C(=N\NC(=O)c1ccc(CSc2cccc3cccnc23)cc1)C1CCCCC1 | – | inconclusive: 7.08 µM [inhibitor, partial curve]
56 | CCOc1ccc(N(C)C(=O)C2CCN(S(=O)(=O)c3c(C)noc3/C=C/c3ccc(C)cc3)CC2)cc1 | – | inconclusive: 31.6 µM [inhibitor, single point]
57 | CCc1nnc(NC(=O)CSc2ccc(-c3ccc(F)cc3)nn2)s1 | – | inconclusive: 6.31 µM [inhibitor, full curve]
58 | Cc1ccc(NC(=O)/C=C/c2ccco2)cc1F | – | inconclusive: 1.58 µM [inhibitor, partial curve]
59 | Cc1cc(/C=N/NC(=O)c2cccs2)c(C)n1-c1ccccc1 | – | inconclusive: 20 µM [inhibitor, partial curve]
60 | O=C(COc1ccccc1)Nc1cccc(-c2nc3ccccc3[nH]2)c1 | – | inconclusive: 31.6 µM [activator, single point]
61 | Cn1c(-c2ccc3ccccc3n2)nc2cnccc21 | – | inconclusive: 5.62 µM [inhibitor, partial curve]
62 | CC1CC(=O)N(c2ccc(NCCc3ccccc3)c([N+](=O)[O-])c2)C1=O (stereo not drawn) | – | inconclusive: 12.6 µM [inhibitor, partial curve]
63 | CCCCOc1ccc(C(=O)NCCc2sc3nc(-c4ccc(OC)cc4)nn3c2C)cc1 | – | inconclusive: 1.12 µM [inhibitor, full curve]
64 | CCOc1cc(NC(=O)c2cccs2)c(OCC)cc1NC(=O)CCC(=O)NCc1ccccn1 | – | inconclusive: 22.4 µM [inhibitor, partial curve]
65 | O=C1N2CCCc3cccc(c32)C12Nc1ccccc1S2 (stereo not drawn) | inactive: -5.52% | –
66 | Cc1cccc(-c2nc3scc(CCNS(=O)(=O)c4ccc(F)c(C(F)(F)F)c4)n3n2)c1 | inactive: 9.24% | –
67 | Cc1ccc(C(=O)Nc2ccc(C(=O)O)cc2)cc1S(=O)(=O)N1CCC(C)CC1 | inactive: -6.28% | –
68 | CNS(=O)(=O)c1ccc(N=Cc2c(C)[nH]n(-c3ccc(C)cc3C)c2=O)cc1 | inactive: -5.28% | –
